{"source": "PubChem BioAssay AID1478", "about": "(National Center for Advancing Translational Sciences (NCATS), 2009)", "note": "“And” between values parts separate entries of the source, which are not always exact repeats. Equal values may be shown once. Screen size: about 200,000 compounds; about 860 (0.43%) were called active. Inconclusive results, whose numbers are uncertain, are shown with a selection of clear calls. Calls follow the shape of the dose curve; as a rule, active = well fitted inhibition curve with a large enough effect; inconclusive = small, poorly fitted or top-dose-only effect; inactive = flat fitted curve, though single readings scatter. A potency beside an inconclusive call is a rough fit, not a confirmed value. Potency is read from the fitted curve at half-maximal effect; tags tell the direction and shape of the fitted curve."}
{"target": "Cruzipain (Trypanosoma cruzi) (UniProt P25779)", "sequence (P25779 whole entry, looked up)": "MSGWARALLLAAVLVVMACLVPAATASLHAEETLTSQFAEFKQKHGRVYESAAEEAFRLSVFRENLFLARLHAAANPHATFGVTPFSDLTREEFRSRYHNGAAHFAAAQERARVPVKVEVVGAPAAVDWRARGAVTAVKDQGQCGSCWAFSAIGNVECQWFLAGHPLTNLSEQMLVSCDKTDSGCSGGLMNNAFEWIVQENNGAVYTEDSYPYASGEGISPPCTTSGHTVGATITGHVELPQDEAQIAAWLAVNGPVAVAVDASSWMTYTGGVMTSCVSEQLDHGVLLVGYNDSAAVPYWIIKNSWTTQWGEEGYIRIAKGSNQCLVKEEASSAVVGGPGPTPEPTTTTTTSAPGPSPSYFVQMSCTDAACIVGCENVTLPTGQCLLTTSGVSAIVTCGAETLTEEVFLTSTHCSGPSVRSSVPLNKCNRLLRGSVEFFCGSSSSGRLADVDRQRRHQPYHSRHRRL", "test": "qHTS Assay for Promiscuous and Specific Inhibitors of Cruzain (with detergent); also: nearly all actives have a fitted effect of over 40% in size;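 as to max response, negative = inhibition: plate controls were neutral wells for no effect and buffer without enzyme for full effect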", "conditions": "purified cruzain, Z-FR-AMC fluorescence, 0.01% Triton", "summary_of_the_method": "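Cruzain (1.5 nM) preincubated 15 min at RT with compound in 100 mM sodium acetate pH 5.5, 5 mM DTT, 0.01% Triton X-100. Reaction started with 2 uM Z-FR-AMC; AMC fluorescence (ex 360/em 450 nm) change over 60 s gave rate.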"}
{"smiles": "CC(C)Oc1ccc(CNC(=O)Nc2ccc3c(c2)N(C)C(=O)c2ccccc2S3)cc1", "max response, negative = inhibition": "inactive: 1.27%"}
{"smiles": "COc1cccc(Nc2nc(NCCO)c3ccccc3n2)c1", "Potency": "inconclusive: 25.1 µM [inhibitor, partial curve]"}
{"smiles": "CC(C)c1nn2c(=O)cc(COC(=O)CNC(=O)c3ccccc3Cl)nc2s1", "Potency": "inconclusive: 25.1 µM [inhibitor, single point]"}
{"smiles": "CCCCNC(=O)c1cc2c(=O)n3cccc(C)c3nc2n(CCN2CCOCC2)c1=N", "Potency": "inconclusive: 28.2 µM [inhibitor, single point]"}
{"smiles": "COc1ccccc1-c1cc(NCc2cccnc2)ncn1", "Potency": "inconclusive: 15.8 µM [inhibitor, partial curve]"}
{"smiles": "CN1CCc2nc3sc(C(=O)Nc4cccc(C#N)c4)c(N)c3cc2C1", "Potency": "inconclusive: 25.1 µM [inhibitor, single point]"}
{"smiles": "CC1=CC(=O)C2=C(C)C[C@H](OC(=O)Cc3ccccc3)C3[C@H](OC(=O)[C@H]3C)C12", "note": "(stereo not given in full)", "Potency": "inconclusive: 15.8 µM [inhibitor, partial curve]"}
{"smiles": "Cc1ccc(-n2c(SCC(=O)Nc3ccc4c5c(cccc35)CC4)nc(O)cc2=O)cc1", "Potency": "inconclusive: 22.4 µM [inhibitor, single point]"}
{"smiles": "O=C(NC(Cc1ccccc1)C(=O)Oc1ccc2c(C(F)(F)F)cc(=O)oc2c1)OCc1ccccc1", "note": "(stereo not given)", "Potency": "active: 11.2 µM"}
{"smiles": "O=C(/C=C/c1ccc(O)c(O)c1)O[C@@H]1C[C@@](O)(C(=O)O)C[C@H](O)[C@@H]1O", "max response, negative = inhibition": "inactive: -7.91%"}
{"smiles": "COc1ccc(CCNC(=O)c2ccc(-c3ccc([N+](=O)[O-])cc3Cl)o2)cc1", "Potency": "inconclusive: 20 µM [inhibitor, partial curve]"}
{"smiles": "CCOc1ccc(C(=O)Nc2cc(-c3nc4ccccc4[nH]3)ccc2Cl)cc1[N+](=O)[O-]", "Potency": "inconclusive: 10 µM [inhibitor, partial curve]"}
{"smiles": "O=C(Nc1cccc(-c2nc3ccccc3[nH]2)c1)c1cccc(NC(=O)c2ccco2)c1", "Potency": "active: 10 µM"}
{"smiles": "O=C(CCc1nnc2n(Cc3ccccc3Cl)c(=O)c3ccccc3n12)Nc1ccccc1", "max response, negative = inhibition": "inactive: -0.535%"}
{"smiles": "CC(C)Cn1c(=O)c2sccc2n2c(CCCC(=O)NCC(C)c3ccccc3)nnc12", "note": "(stereo not given)", "max response, negative = inhibition": "inactive: 0.157%"}
{"smiles": "CC(NC(=O)OCc1ccccc1)C(=O)Oc1cc2oc(=O)cc(-c3ccccc3)c2cc1Cl", "note": "(stereo not given)", "Potency": "active: 22.4 µM"}
{"smiles": "Cn1c(C(=O)N2CCc3ccccc3C2)cc2c(=O)n3ccccc3nc21", "Potency": "inconclusive: 28.2 µM [inhibitor, single point]"}
{"smiles": "CCc1nnc(NS(=O)(=O)c2ccc(NC(=S)NC(=O)/C=C/c3ccccc3)cc2)s1", "Potency": "active: 25.1 µM"}
{"smiles": "C[N+]1(C)C2CCC1CC(OC(=O)c1c[nH]c3ccccc13)C2", "note": "(stereo not given)", "Potency": "inconclusive: 28.2 µM [inhibitor, single point]"}
{"smiles": "NC1=Nc2ccccc2Oc2ccccc21", "Potency": "inconclusive: 14.1 µM [inhibitor, partial curve]"}
{"smiles": "N#C/C(=C\\c1ccc(O)c(O)c1)C(N)=S", "Potency": "inconclusive: 39.8 µM [inhibitor, single point]"}
{"smiles": "C/C(CC(c1ccccc1)c1c(O)c2ccccc2oc1=O)=N\\NC(N)=S", "note": "(stereo not given)", "Potency": "inconclusive: 28.2 µM [inhibitor, single point]"}
{"smiles": "Cc1cc(C)c(Cn2c(CCNC(=O)c3ccco3)nc3ccccc32)c(C)c1", "Potency": "inconclusive: 25.1 µM [inhibitor, single point]"}
{"smiles": "Nc1ccc(-c2nc3ccc(-c4nc5ccc(N)cc5[nH]4)cc3[nH]2)cc1", "Potency": "active: 10 µM and active: 14.1 µM"}
{"smiles": "COc1cccc(C2CC(=O)Nc3c2c(=O)n(C)c2ncnn32)c1OC", "note": "(stereo not given)", "max response, negative = inhibition": "inactive: 0.77%"}
{"smiles": "O=C(COC(=O)/C=C/c1ccc(Cl)cc1)Nc1ccc2c(c1)OCCO2", "max response, negative = inhibition": "inactive: -1%"}
{"smiles": "C=CCC(C)(Nc1ccccc1)C(=O)OCC", "note": "(stereo not given)", "max response, negative = inhibition": "inactive: 4.68%"}
{"smiles": "O=C(c1cc2c(s1)-c1ccccc1OC2)N1CCCC1", "Potency": "inconclusive: 12.6 µM [inhibitor, partial curve]"}
{"smiles": "Cc1coc2cc3oc(=O)c4c(c3cc12)CCC4", "max response, negative = inhibition": "inactive: -1.1%"}
{"smiles": "Cc1ccc2[nH]cc(C(=O)CCl)c2c1", "Potency": "inconclusive: 25.1 µM [inhibitor, partial curve]"}
{"smiles": "Cc1ccc(OCC(=O)Nc2ccc(N3CCCC3)cc2)cc1C", "Potency": "inconclusive: 31.6 µM [inhibitor, single point]"}
{"smiles": "Cc1cccc(NC(=O)CSc2nc(C3CCCC3)nc3c2c(=O)n(C)c(=O)n3C)c1C", "max response, negative = inhibition": "inactive: 2.51%"}
{"smiles": "S=C(Nc1ccc(OCc2ccccc2)cc1)Nc1cccc(Cl)c1Cl", "max response, negative = inhibition": "inactive: -4.82%"}
{"smiles": "Cc1ccc(/C=C/C(=O)OC(C)C(=O)Nc2ccc(Cl)cn2)o1", "note": "(stereo not given)", "Potency": "inconclusive: 25.1 µM [inhibitor, partial curve]"}
{"smiles": "Cc1ccc(NS(=O)(=O)c2cc([N+](=O)[O-])ccc2NNC(=S)Nc2cccc(Cl)c2)c(C)c1", "Potency": "active: 20 µM"}
{"smiles": "COc1ccc(/C=C2/C(=O)N(Cc3ccccc3)N=C2C)cc1", "max response, negative = inhibition": "inactive: -0.0119%"}
{"smiles": "CN(C)Cc1ccccc1-c1cc(N(C)Cc2ccco2)ncn1", "max response, negative = inhibition": "inactive: -1.16%"}
{"smiles": "COc1ccc(C2c3c(ccc4ccccc34)Oc3ncn4nc(Cc5ccccc5)nc4c32)cc1OC", "note": "(stereo not given)", "max response, negative = inhibition": "inactive: -1.56%"}
{"smiles": "Cc1cc(N)c2ccccc2[n+]1CCCCCCCCCCCCCC[n+]1c(C)cc(N)c2ccccc21", "Potency": "active: 12.6 µM"}
{"smiles": "Cc1cc(C)n(C(C)CC(=O)Nc2ccc(C)c(F)c2)n1", "note": "(stereo not given)", "max response, negative = inhibition": "inactive: -2.41%"}
{"smiles": "O=C(c1ccco1)N(CCC(c1ccccc1)c1ccco1)Cc1ccco1", "note": "(stereo not given)", "Potency": "inconclusive: 39.8 µM [inhibitor, single point]"}
{"smiles": "Cc1ccc(Cl)cc1-n1c(=O)cc(N2CCN(c3ccccc3)CC2)[nH]c1=O", "max response, negative = inhibition": "inactive: -0.202%"}
{"smiles": "COC(=O)Sc1nc(N2CCOCC2)c2c(c1C#N)CC(C)(C)OC2", "Potency": "active: 10 µM"}
{"smiles": "CCOC(=O)C1(C)C=C(Nc2ccc(C)cc2)C(=O)N1c1ccccc1", "note": "(stereo not given)", "max response, negative = inhibition": "inactive: -2.33%"}
{"smiles": "COc1cc2oc(=O)c(CC(=O)N3CCCCC3)c(C)c2cc1OC", "Potency": "inconclusive: 28.2 µM [inhibitor, single point]"}
{"smiles": "Nc1cc(=O)nc(SCC(=O)Nc2ccccc2)n1-c1ccccc1", "Potency": "inconclusive: 28.2 µM [inhibitor, single point]"}
{"smiles": "Cc1nnc(N/N=C\\c2ccc(-c3ccccc3[N+](=O)[O-])o2)n1N", "Potency": "active: 14.1 µM"}
{"smiles": "CN(C)c1ccc(CNC(=O)C2CCN(S(=O)(=O)c3ccc4c(ccn4C)c3)CC2)cc1", "max response, negative = inhibition": "inactive: -2.04%"}
{"smiles": "COc1cc(/C=N/Nc2nc3c(c(=O)n(C)c(=O)n3C)n2Cc2ccccc2)ccc1OC(=O)c1ccco1", "Potency": "inconclusive: 22.4 µM [inhibitor, single point]"}
{"smiles": "CC(=O)c1ccc(NC(=O)c2ccc3c(c2)N(Cc2cccc(Cl)c2)C(=O)c2ccccc2S3(=O)=O)cc1", "max response, negative = inhibition": "inactive: -1.8%"}
{"smiles": "COCCCn1c(SCc2cc(=O)[nH]c3ccccc23)nnc1-c1ccco1", "max response, negative = inhibition": "inactive: -1.68%"}
{"smiles": "Cc1ccc(C(=O)COC(=O)CNS(=O)(=O)c2ccccc2)cc1[N+](=O)[O-]", "Potency": "inconclusive: 31.6 µM [inhibitor, single point]"}
{"smiles": "CCCCNC(=O)c1cc2c(=O)n3cccc(C)c3nc2n(Cc2ccccc2)c1=N", "Potency": "active: 28.2 µM"}
{"smiles": "CCOC(=O)c1cc2c(=O)n3ccccc3nc2n(CCCOC)c1=NC(C)=O", "Potency": "active: 31.6 µM"}
{"smiles": "S=C1NCCc2ccccc2C1c1ccccc1", "note": "(stereo not given)", "Potency": "inconclusive: 1.78 µM [inhibitor, full curve, poor fit]"}
{"smiles": "Cc1nc2cnc(N3CCN(C)CC3)nc2n(C)c1=O", "Potency": "inconclusive: 25.1 µM [inhibitor, single point]"}
{"smiles": "CCCC(CCC)C(=O)Nc1cccc(-c2nc3cccnc3s2)c1C", "max response, negative = inhibition": "inactive: -1.43%"}
{"smiles": "CSCCC(NC(=O)c1ccc([N+](=O)[O-])cc1Cl)C(=O)OCC(=O)C12CC3CC(CC(C3)C1)C2", "note": "(stereo not given)", "Potency": "active: 28.2 µM"}
{"smiles": "N[C@@H](CSCc1ccc(I)cc1)C(=O)O", "max response, negative = inhibition": "inactive: 0.35%"}
{"smiles": "Cc1ccccc1NC(=O)c1c(C)oc2ccc(O)c(CN3CCC(C)CC3)c12", "max response, negative = inhibition": "inactive: -5.3%"}
{"smiles": "COc1cc(/C=N/N=C2/NC(=O)C(CC(=O)O)S2)ccc1OCc1ccc(Cl)cc1", "note": "(stereo not given)", "Potency": "inconclusive: 25.1 µM [inhibitor, single point]"}
{"smiles": "Cc1cc(Cl)ccc1OC(C)C(=O)Nc1ccc(S(=O)(=O)Nc2cnc3ccccc3n2)cc1", "note": "(stereo not given)", "Potency": "active: 25.1 µM"}
{"smiles": "CN(C)CCN(Cc1ccco1)C(=O)c1cc2c(s1)-c1ccccc1OC2", "Potency": "inconclusive: 25.1 µM [inhibitor, single point]"}
{"smiles": "O=C(N/N=C/c1ccc2c(c1)OCO2)c1ccc(Br)o1", "Potency": "inconclusive: 28.2 µM [inhibitor, single point]"}
{"smiles": "O=C(NCc1cccnc1)c1ccc(COc2cccc3ccccc23)o1", "Potency": "inconclusive: 31.6 µM [inhibitor, single point]"}
{"smiles": "COc1cc2c(cc1OC)C(c1ccc(-c3cc(Cl)ccc3Cl)o1)=NCC2", "Potency": "inconclusive: 28.2 µM [inhibitor, single point]"}
{"smiles": "CC(C)NC(=O)N1CCC2(CC1)CCN(C(=O)c1cc(C(F)(F)F)cc(C(F)(F)F)c1)CC2", "max response, negative = inhibition": "inactive: 0.139%"}
{"smiles": "Cc1c(Br)cc(C(=O)NCc2ccco2)c(C)c1C", "Potency": "inconclusive: 28.2 µM [inhibitor, single point]"}
{"smiles": "COCCn1c(=O)c(C)nc2cnc(N3CCN(C)CC3)nc21", "Potency": "inconclusive: 31.6 µM [inhibitor, single point]"}
{"smiles": "COc1ccc(/C=C/C(=O)NC(=S)NN2CCCCC2c2cccnc2)cc1", "note": "(stereo not given)", "Potency": "inconclusive: 25.1 µM [inhibitor, partial curve]"}
